Laboratory results from PubChem BioAssay AID485341 (National Center for Advancing Translational Sciences (NCATS), 2010).
Out of some 330,000 compounds screened, about 1,700 (0.52%) were called active. The shares of active, inactive and inconclusive entries below differ from those in the screen. The call rests on the fitted dose curve; in most records, active means well fitted inhibition curve with a large enough effect; inconclusive means small, poorly fitted or top-dose-only effect; inactive means no such curve, though single readings can be large or run the other way. A potency beside an inconclusive call is a rough fit, not a confirmed value.

target: Beta-lactamase (Escherichia coli (strain K12)) (UniProt P00811); test: qHTS Inhibitors of AmpC Beta-Lactamase (assay without detergent); details: AmpC nitrocefin hydrolysis, absorbance 480 nm, 0.0001% Triton; activity change, negative = inhibition: at 57.1 µM (top of the series) unless noted; further: nearly all actives have a fitted effect of over 20% in size;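 on activity change, negative = inhibition: plate controls were no compound for no effect and no enzyme for full effect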
In short: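 AmpC (5.3 nM in the dispensed reagent) in 20 mM phosphate pH 7.0 with 0.01% (detergent screen) or 0.0001% Triton X-100 was preincubated with compounds for 15 min at room temperature. Nitrocefin was then added from an 800 uM solution, and hydrolysis was followed at 480 nm.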
Potency means the concentration at half of the fitted maximal effect; tags describe the fitted curve by direction and shape.

Sequence of UniProt P00811 (P00811 whole entry, looked up): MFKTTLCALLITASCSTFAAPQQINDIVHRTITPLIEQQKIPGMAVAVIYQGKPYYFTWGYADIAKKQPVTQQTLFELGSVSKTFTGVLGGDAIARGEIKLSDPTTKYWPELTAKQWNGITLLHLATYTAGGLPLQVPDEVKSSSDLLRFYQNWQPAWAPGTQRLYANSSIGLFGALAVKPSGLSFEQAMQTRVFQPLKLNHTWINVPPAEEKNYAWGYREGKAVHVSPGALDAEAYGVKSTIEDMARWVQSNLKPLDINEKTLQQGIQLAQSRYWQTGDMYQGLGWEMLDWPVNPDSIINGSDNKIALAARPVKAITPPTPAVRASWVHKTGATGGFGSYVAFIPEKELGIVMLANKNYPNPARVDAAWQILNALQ

Question: How did the “activity change, negative = inhibition” value turn out when `CN(Cc1cn(C)c2ccccc12)C(=S)Nc1cc(F)cc(F)c1` was run?
Answer: Its value is inactive: -5.63%.

Question: Which “activity change, negative = inhibition” value does the source give for `Cc1nn(C)cc1S(=O)(=O)Nc1ccc2c(c1)OCCO2` here?
Answer: Its value is inactive: -13.1%.

Question: Which Potency does the source give for `CC(C)[C@H](NC(=O)OC(C)(C)C)c1nnc(S(=O)(=O)Cc2c(F)cccc2Cl)o1` here?
Answer: The Potency was active: 2.51 µM.

Question: `O=c1c(-c2nc3ccccc3s2)cccn1Cc1ccc(Cl)c(Cl)c1` was tested. Which Potency did it give?
Answer: The Potency was inconclusive: 5.62 µM [inhibitor, single point].

Question: Which “activity change, negative = inhibition” value does the source give for `O=C(Nc1ccccc1C(=O)Nc1ccccc1)c1ccccc1F` here?
Answer: Its value is inactive: -12.8%.

Question: For `COc1ccc(-c2nc(SCC(=O)Nc3nccs3)c(-c3ccc(Cl)cc3)[nH]2)cc1`, which Potency is on record?
Answer: Its Potency is inconclusive: 3.16 µM [inhibitor, single point].

Question: How did the Potency turn out when `COc1ccccc1C(CC(=O)c1ccccc1)CC(=O)c1ccccc1` was run?
Answer: The Potency was inconclusive: 3.55 µM [inhibitor, full curve, poor fit].

Question: `Cc1cccc(C)c1NC(=O)c1ccc(-n2cncn2)nc1` was tested. Which Potency did it give?
Answer: Its Potency is inconclusive: 0.141 µM [inhibitor, full curve, poor fit].

Question: For `Cc1cc(C)c2nc(/N=C(\N)NC(=O)Nc3ccccc3)nc(C)c2c1`, which “activity change, negative = inhibition” value is on record?
Answer: The value was inactive: -12.2%.

Question: For `Fc1cccc(NC(=S)NCc2ccccn2)c1`, which “activity change, negative = inhibition” value is on record?
Answer: The value was inactive: -21.7%.

Question: With `CCc1ccc(NC(=O)C(C)Sc2nc(-c3ccco3)c(C#N)c(=O)[nH]2)cc1` (stereo not given) as the compound, how does the “activity change, negative = inhibition” value read?
Answer: The value was inactive: -31.9%.

Question: Which Potency does the source give for `CCn1c(SCC(=O)Nc2cccc(OC)c2)nc2c(c1=O)SCC2` here?
Answer: Its Potency is inconclusive: 31.6 µM [inhibitor, single point].

Question: For `CONC(=O)C1CCN(C(=O)OCc2ccccc2)CC1`, which Potency is on record?
Answer: Its Potency is inconclusive: 2.51 µM [inhibitor, single point].

Question: `CN(C)C(=O)c1noc2cc([N+](=O)[O-])ccc12` was tested. Which Potency did it give?
Answer: The Potency was inconclusive: 6.31 µM [inhibitor, single point].

Question: `CCOC(=O)N1CCN(c2nc(-c3ccc(OC)cc3)no2)CC1` was tested. Which “activity change, negative = inhibition” value did it give?
Answer: The value was inactive: 31.3%.

Question: For `O=C(NNc1ccc([N+](=O)[O-])cc1)c1ccccc1Cl`, which “activity change, negative = inhibition” value is on record?
Answer: Its value is inactive: -17.2%.

Question: For `Cc1ccc(NC(=S)NNC(=O)c2ccco2)cc1`, which Potency is on record?
Answer: Its Potency is inconclusive: 0.631 µM [inhibitor, partial curve, poor fit].

Question: With `O=C1Nc2ccc(F)cc2C12Nc1ccccc1-c1nnc(SCc3ccccc3)nc1O2` (stereo not given) as the compound, how does the Potency read?
Answer: The Potency was active: 17.8 µM.

Question: For `CC1CN(Cc2nc3c(c(=O)n(C)c(=O)n3C)n2Cc2cccc(Cl)c2)CC(C)O1` (stereo not given), which Potency is on record?
Answer: The Potency was active: 44.7 µM.

Question: With `Cc1ccc(NC(=O)NNC(=O)Cn2nc(-c3ccccc3)c(-c3ccccc3)c(C#N)c2=O)cc1` as the compound, how does the “activity change, negative = inhibition” value read?
Answer: Its value is inactive: -36.7%.

Question: `Cc1ccc(N=Nc2ccc(O)cc2)c(Br)c1` was tested. Which Potency did it give?
Answer: The Potency was inconclusive: 2 µM [inhibitor, full curve, poor fit].

Question: How did the Potency turn out when `CCCC(=O)Nc1ccc(Cl)c(NC(=O)c2cccnc2)c1` was run?
Answer: The Potency was active: 0.158 µM.

Question: `CC1CCCCN1Cc1cnc(Cl)s1` (stereo not given) was tested. Which Potency did it give?
Answer: Its Potency is inconclusive: 0.282 µM [inhibitor, full curve, poor fit].

Question: With `Cc1nc(NC(=O)c2ccccc2)sc1-c1csc(Nc2ccc(Cl)cc2Cl)n1` as the compound, how does the Potency read?
Answer: Its Potency is inconclusive: 2 µM [inhibitor, full curve, poor fit].

Question: How did the Potency turn out when `COc1ccccc1NC(=O)c1c(Nc2ccccc2C)sc(C(=O)Nc2cccc(Cl)c2)c1N` was run?
Answer: Its Potency is inconclusive: 2.82 µM [inhibitor, full curve, poor fit].

Question: Which Potency does the source give for `O=C1NC(=Nc2ccccc2)S/C1=C\C=C\c1ccco1` here?
Answer: Its Potency is active: 14.1 µM.

Question: Which Potency does the source give for `Cc1cc(/C=N/n2c(COc3ccccc3)nc3ccccc3c2=O)c(O)c([N+](=O)[O-])c1` here?
Answer: Its Potency is active: 20 µM.

Question: `CCN(CC)c1ccc2c(O)cc(=O)oc2c1` was tested. Which Potency did it give?
Answer: Its Potency is active: 25.1 µM.

Question: `Nc1nc(-c2ccc(Oc3ccccc3)cc2)c(CC(=O)O)s1` was tested. Which Potency did it give?
Answer: The Potency was inconclusive: 15.8 µM [inhibitor, partial curve].

Question: For `COc1ccc(CNC(=O)c2ccc(NC(=O)C3=CSCCO3)cc2)cc1`, which “activity change, negative = inhibition” value is on record?
Answer: The value was inactive: -22%.

Question: Which Potency does the source give for `COc1ccc2oc(C(=O)N(Cc3ccco3)Cc3cccs3)c(C)c2c1` here?
Answer: The Potency was active: 31.6 µM.

Question: `Cc1cc(OCCn2cc(/C(N)=N/O)c3ccccc32)ccc1Cl` was tested. Which Potency did it give?
Answer: The Potency was active: 15.8 µM.

Question: For `O=C1NC(=S)S/C1=C\C=C\c1ccc([N+](=O)[O-])o1`, which Potency is on record?
Answer: Its Potency is active: 11.2 µM.

Question: Which Potency does the source give for `O=C(Nc1ccc(Cl)cc1C(=O)N1CCOCC1)c1ccco1` here?
Answer: Its Potency is inconclusive: 5.01 µM [inhibitor, partial curve, poor fit].

Question: Which Potency does the source give for `O=C1S/C(=C/c2ccccc2)C(=O)N1CC(O)Cn1c2ccccc2c2ccccc21` (stereo not given) here?
Answer: Its Potency is active: 15.8 µM.

Question: With `O=C(CN1CCN(Cc2ccccc2)CC1)N/N=C/c1ccc(Br)s1` as the compound, how does the Potency read?
Answer: Its Potency is inconclusive: 0.447 µM [inhibitor, single point].

Question: With `CCn1cnc2c1c(=O)n(CC(=O)NN)c(=O)n2Cc1ccccc1` as the compound, how does the “activity change, negative = inhibition” value read?
Answer: Its value is inactive: 19%.

Question: For `C=CCC1(C#N)C(=S)NC2=C(C(=O)CC(C)(C)C2)C1c1ccc(Br)cc1` (stereo not given), which Potency is on record?
Answer: Its Potency is inconclusive: 15.8 µM [inhibitor, partial curve].

Question: `Cc1ccc(C(=O)NCC(c2ccco2)N2CCOCC2)cc1` (stereo not given) was tested. Which Potency did it give?
Answer: The Potency was inconclusive: 31.6 µM [inhibitor, single point].

Question: With `OC(c1cccc(Cl)c1)c1nccc2ccccc12` (stereo not given) as the compound, how does the “activity change, negative = inhibition” value read?
Answer: Its value is inactive: -9.83%.

Question: With `Cn1c(=O)c2c(SCC(=O)N3CCOCC3)nc(C3CC3)nc2n(C)c1=O` as the compound, how does the Potency read?
Answer: The Potency was active: 10 µM.

Question: For `CC(C)C(=O)NC(Nc1ccccc1F)C(Cl)(Cl)Cl` (stereo not given), which “activity change, negative = inhibition” value is on record?
Answer: The value was inactive: 45.6%.

Question: `COc1ccc(NC(=O)c2nn(C)c(=O)c3ccccc23)cc1S(=O)(=O)Nc1ccccc1Cl` was tested. Which “activity change, negative = inhibition” value did it give?
Answer: The value was inactive: 97.4%.

Question: With `FC(F)(F)c1cnc(-c2cnc3c(-c4ccc(Cl)cc4)cnn3c2)c(Cl)c1` as the compound, how does the Potency read?
Answer: Its Potency is inconclusive: 5.01 µM [inhibitor, single point].

Question: Which “activity change, negative = inhibition” value does the source give for `CN(CC(=O)Nc1ccccc1Br)C(=O)c1sccc1-c1ccccc1` here?
Answer: Its value is inactive: -21.4%.

Question: For `CCN(CC(=O)Nc1c(F)cccc1F)C(=O)c1cc([N+](=O)[O-])ccc1N1CCCCC1`, which “activity change, negative = inhibition” value is on record?
Answer: Its value is inactive: -10.6%.

Question: Which Potency does the source give for `COc1ccc(NS(=O)(=O)c2cc(N/C(=N\S(=O)(=O)c3ccccc3)c3ccc(F)cc3)ccc2Cl)cc1` here?
Answer: Its Potency is inconclusive: 3.16 µM [inhibitor, partial curve].

Question: Which “activity change, negative = inhibition” value does the source give for `CCCCCC1=C(C(=O)OC)C(C(=O)OCC)N(S(=O)(=O)C(F)(F)F)c2ccccc21` (stereo not given) here?
Answer: Its value is inactive: 40.8%.

Question: Which “activity change, negative = inhibition” value does the source give for `CC1=NN(c2ccc(C)c(C)c2)C(=O)/C1=C\C=C\c1ccc([N+](=O)[O-])o1` here?
Answer: The value was inactive: -37.6%.

Question: `Cc1nc2c(C(=O)NCc3ccccc3Cl)c[nH]n2c(=O)c1Cl` was tested. Which Potency did it give?
Answer: Its Potency is inconclusive: 4.47 µM [inhibitor, single point].
